Measured values as given in the RNAGym collection of RNA variant scans (doi:10.7554/elife.90254).
The source gives no read counts; variants with many changes may rest on few reads.

B1: LINE1-mini (parent)
chain: GGCAGAGCUCAACACAGCGUGGCAAAGUGGCUGUGGCUAGACUGCC

Variants of: B1
Experiment: self-cleavage, relative activity (ratio to wild type); higher = more cleavage; in vitro, sequencing; the parent is a self-cleaving ribozyme
With A4G A11G C15A U32C the self-cleavage was 0.01. A4C U9C C13A C18A gave a self-cleavage of 0.01. For A4C U20A G21U A39U C42U C45A, the self-cleavage was 0.05. A4C G27A C37A gave a self-cleavage of 0.07. A4G A6C G7A C8U G19U A24G C31G gave a self-cleavage of 0.04. In the case of A4G C18A C23A A26C G44C, the self-cleavage is reported as 0.01. In the case of A4G A12U G27U, the self-cleavage is reported as 0.27. Work on A4G C23U U32C G33U U38A yielded a self-cleavage of 0.08. In the case of A4C U20C G22A A26G, the self-cleavage is reported as 0.01. For A4G G5A G7C G30C G35C A41G, the self-cleavage was 0.08. In the case of A4G C13G U32A, the self-cleavage is reported as 0.12. A4G A25C U32C C37U showed a self-cleavage of 0.04. Work on A4G A6G C15U C18A G33C yielded a self-cleavage of 0.01. A4G C10G G17A G19A A25U A26U U32A U34G A39U showed a self-cleavage of 0. A4G C13A G30A gave a self-cleavage of 0.06. A4C G27U U43G gave a self-cleavage of 0.07. A4G A24C U43A showed a self-cleavage of 0. For A4G C13A C15G G27U G44U, the self-cleavage was 0.03. Variant A4G C8A U43A has a self-cleavage of 0.46. A4G A14C G17A showed a self-cleavage of 0. Work on A4G A16U C37U yielded a self-cleavage of 0.15. Work on A4G A6G G7U yielded a self-cleavage of 0.01. For A4G A24U U32A G33U, the self-cleavage was 0.05. For A4G C10U A24C G27A G29C, the self-cleavage was 0.01. Variant A4G A6C G7A C23A C42A U43G has a self-cleavage of 0.25. A4G A24C A26C G35A gave a self-cleavage of 0.04. Variant A4G C10A U38A U43C has a self-cleavage of 0.03. For A4G C42U C45G, the self-cleavage was 0. Variant A4G C42U C45U has a self-cleavage of 0.06. With A4G C18G A26G G30C the self-cleavage was 1.28. A4G C8U C13U G30U G35A showed a self-cleavage of 0.77. Work on A4C U9C A39G C46A yielded a self-cleavage of 0.02. A4C G21U G44U gave a self-cleavage of 0.03. Work on A4C G22C A39G C46U yielded a self-cleavage of 0.17. Variant A4C G22A C23U C42A has a self-cleavage of 0.34. Variant A4G C15U G21U has a self-cleavage of 0.47. For A4G C10A C23A A25U G40U, the self-cleavage was 0.01. A4G C8A C13U A16U C45U gave a self-cleavage of 0.2. With A4C U9C G22C the self-cleavage was 0.03. Work on A4C U28G G29U C37A yielded a self-cleavage of 0.06. With A4G C8A A39C the self-cleavage was 0.13. For A4G A26C U32G, the self-cleavage was 0.3. A4G C13U A16C G21U showed a self-cleavage of 0.07. With A4G C8U A12C G17A C46A the self-cleavage was 0.04. Work on A4G A6G G22A A25U G27C G29A U32G yielded a self-cleavage of 0.02. A4G A25U U32C G40A U43C gave a self-cleavage of 0.18. Work on A4C G21U C46U yielded a self-cleavage of 0.05. In the case of A4G A16C C31U, the self-cleavage is reported as 0.07. Work on A4G A14C C23U A24G yielded a self-cleavage of 0.07. In the case of A4G C13U C15A G17A G27A, the self-cleavage is reported as 0.03. A4G C13U G40U gave a self-cleavage of 0.16. A4G G5C A6G C10U A16U G29U G33A G35U showed a self-cleavage of 0.01. A4G A6C G44U gave a self-cleavage of 0.38. Variant A4G A16G U43A has a self-cleavage of 0.18. For A4C G30A A39G U43A, the self-cleavage was 0.12. Work on A4G A26C G27C G40A yielded a self-cleavage of 0.09. A4G A39G A41G showed a self-cleavage of 0.02. Work on A4G A14U C42G yielded a self-cleavage of 0.06. A4C G29U G30C C37U G40A showed a self-cleavage of 0.01. A4G C18U A24C A25U gave a self-cleavage of 0.07. A4C G27C U43C showed a self-cleavage of 0. For A4G C8U C15U G19A G30A, the self-cleavage was 0.18. Work on A4G C10A G22A C23U C42A yielded a self-cleavage of 0.01. Work on A4G C8G U9A G21A G29U U34C yielded a self-cleavage of 0.16. For A4G C23A G29A G35U A39G, the self-cleavage was 0.13. A4G C8A A16C C18U A24U U28C A41G C42A G44U gave a self-cleavage of 0.17. Variant A4C G33C C42U has a self-cleavage of 0.08. With A4C G22A G44U the self-cleavage was 0.03. A4G A6C A24U showed a self-cleavage of 0.12. For A4C U9C G17A G33U, the self-cleavage was 0.03. A4G C10U C15A G19C G22C gave a self-cleavage of 0.01. A4C G22U C23A G35U U38A C46U showed a self-cleavage of 0.01. In the case of A4G A11C C23G G33U G44C, the self-cleavage is reported as 0.01. A4G C10G C46U gave a self-cleavage of 0.07. In the case of A4C G29A C42A, the self-cleavage is reported as 0.23. A4C U34A C45U showed a self-cleavage of 0.11. With A4C U43A C45A the self-cleavage was 0.04. With A4C U9A C10G A12U the self-cleavage was 0.04. A4G A24C C42G gave a self-cleavage of 0.04. Work on A4G A25C G33A yielded a self-cleavage of 0.05. Work on A4C U9G A16C G29U U34G yielded a self-cleavage of 0.76. A4C G36U C42G gave a self-cleavage of 0.02. With A4C U34A G35A A39C the self-cleavage was 0.
